Consider 86 sequences from the supplement of paper PMC3334620.

The full ranking holds about 33,000 sequences; the median of “E-score (-0.5 to 0.5)” is about -0.012, and the highest 2% start at about 0.27. This is one part of the list.

The target in this test is T1, Vhr1 (UniProt P40522).
T1 sequence: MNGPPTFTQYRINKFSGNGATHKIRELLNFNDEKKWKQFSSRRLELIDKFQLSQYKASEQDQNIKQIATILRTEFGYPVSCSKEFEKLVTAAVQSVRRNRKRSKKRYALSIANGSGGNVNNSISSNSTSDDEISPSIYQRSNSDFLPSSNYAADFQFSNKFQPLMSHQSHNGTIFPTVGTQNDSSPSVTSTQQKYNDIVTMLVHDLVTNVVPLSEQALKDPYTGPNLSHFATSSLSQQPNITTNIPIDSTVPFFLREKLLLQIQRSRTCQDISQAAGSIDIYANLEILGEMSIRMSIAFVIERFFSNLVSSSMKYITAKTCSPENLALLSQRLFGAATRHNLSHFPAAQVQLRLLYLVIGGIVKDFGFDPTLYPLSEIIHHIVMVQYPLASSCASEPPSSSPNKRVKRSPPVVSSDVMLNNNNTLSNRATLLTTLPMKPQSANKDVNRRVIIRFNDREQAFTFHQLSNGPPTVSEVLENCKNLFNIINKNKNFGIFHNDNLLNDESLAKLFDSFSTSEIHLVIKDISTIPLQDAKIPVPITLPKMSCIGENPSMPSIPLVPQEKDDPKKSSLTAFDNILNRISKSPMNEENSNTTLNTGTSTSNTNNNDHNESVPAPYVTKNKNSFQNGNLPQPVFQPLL
In words: PBM E-score (8-mer binding enrichment) (E-score (-0.5 to 0.5)); higher = stronger / more preferred TF binding; most listed sequences are background and not binding sites. To be noted: protein concentration: 200 nM; construct: GST-full length. Put shortly: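 For each ungapped eight-base word taken together with its reverse complement, the Universal PBM Analysis Suite assigned an E-score. Binding data came from GST-tagged yeast transcription factors, applied at about 100-200 nM, on universal all-10-mer Agilent arrays made double-stranded by primer extension. Fluorescent anti-GST marked bound protein, and scans were normalised with masliner.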
AGAGTGCA: the “PBM E-score” value was -0.192.

As for TAGACGAA, the “PBM E-score” value is -0.211.

Consider AAGAACCC, for which the “PBM E-score” value worked out at 0.0008.

For the sequence AATTGTAA, the “PBM E-score” value was -0.0717.

On to ACAGGGAA, for which the “PBM E-score” value is -0.139.

For AGCCCAGC, the “PBM E-score” value was -0.0142.

For TGTTACAA, the “PBM E-score” value came to 0.13.

For the sequence GTACTCGA, the “PBM E-score” value is 0.0427.

With GAGATCTA, the “PBM E-score” value was -0.00931.

As for CATATGAA, the “PBM E-score” value is 0.0692.

Take AGCTAATC: the “PBM E-score” value is 0.0422.

Take TAGCCAGA: the “PBM E-score” value was -0.173.

With GTCCACGA, the “PBM E-score” value is -0.121.

For the sequence GGAGCTAC, the “PBM E-score” value is -0.0382.

Turning to AGAGTCTG, the “PBM E-score” value is -0.106.

As to ACGCTCGC, the “PBM E-score” value was 0.0589.

Take GTGATAAA: the “PBM E-score” value was -0.00268.

As to GCGTCCAA, the “PBM E-score” value is -0.236.

Regarding TGGCGAAA, the “PBM E-score” value was -0.102.

As for TAGCACAA, the “PBM E-score” value is -0.0198.

As for CTTCAATA, the “PBM E-score” value is -0.0751.

In the case of CAGGGAAG, the “PBM E-score” value was -0.251.

Take CGGAGAAC: the “PBM E-score” value is -0.26.

In the case of TACGCTCA, the “PBM E-score” value is 0.00765.

Take AACGCATA: the “PBM E-score” value is -0.00498.

Take CTGTGTTC: the “PBM E-score” value is -0.0211.

As for CAATACCC, the “PBM E-score” value amounted to 0.0292.

TCCGAAGA: the “PBM E-score” value was -0.0938.

Turning to CGCAATAG, the “PBM E-score” value was determined as 0.117.

In the case of CGATGGCA, the “PBM E-score” value came out at 0.0704.

Turning to ACCGACGG, the “PBM E-score” value was -0.0192.

On to AACAGTGA, for which the “PBM E-score” value stood at 0.059.

Take GTACAGTA: the “PBM E-score” value was 0.0925.

In the case of AGTCACAG, the “PBM E-score” value turned out to be 0.425.

Regarding CCCCCGCA, the “PBM E-score” value is -0.144.

As to CAGAAAGG, the “PBM E-score” value is -0.171.

For TTACGCAA, the “PBM E-score” value was -0.00797.

Take CGAGCGTA: the “PBM E-score” value is -0.0714.

Take CATAGCTC: the “PBM E-score” value stood at 0.0738.

For the sequence ACAGTGGA, the “PBM E-score” value was -0.0091.

In the case of CAGGGTCC, the “PBM E-score” value is -0.236.

As for CAGATTAC, the “PBM E-score” value turned out to be 0.00776.

As for ACGATGTA, the “PBM E-score” value is 0.0879.

As for CGATGATA, the “PBM E-score” value came out at 0.0734.

Take GAATTTGA: the “PBM E-score” value is -0.0783.

Turning to TAAGACTA, the “PBM E-score” value stood at 0.0978.

On to GAGAATCC, for which the “PBM E-score” value was -0.117.

For CTTAATAC, the “PBM E-score” value was 0.145.

On to ACCTCTCC, for which the “PBM E-score” value was -0.28.

Consider AAAGATCG, for which the “PBM E-score” value is -0.136.

In the case of CGTCTCAG, the “PBM E-score” value was -0.0337.

Take AACTCGAG: the “PBM E-score” value is 0.124.

Regarding GAAGGGAA, the “PBM E-score” value was -0.189.

On to AACTACCA, for which the “PBM E-score” value amounted to 0.0724.

Regarding GGTCGTCA, the “PBM E-score” value stood at 0.0187.

As for CACCACGG, the “PBM E-score” value was -0.293.

GCTCTGCA: the “PBM E-score” value is -0.201.

For AAGCTTAA, the “PBM E-score” value was -0.0734.

Turning to CTAAACCC, the “PBM E-score” value was -0.00595.

Take ATTTTGGG: the “PBM E-score” value is -0.177.

As for CAAACTTA, the “PBM E-score” value is -0.0449.

CACATACA: the “PBM E-score” value is 0.146.

For the sequence CACCCAGG, the “PBM E-score” value amounted to 0.2.

As to CCACGGAG, the “PBM E-score” value is -0.0267.

Take AAGCTAAG: the “PBM E-score” value was -0.272.

TCCAAGAA: the “PBM E-score” value was -0.107.

On to TTCTCAAA, for which the “PBM E-score” value was -0.059.

CCAGTTTC: the “PBM E-score” value is -0.0294.

Consider GTTGTTCA, for which the “PBM E-score” value is -0.013.

With TAGTACTA, the “PBM E-score” value worked out at 0.21.

GAATTAAA: the “PBM E-score” value is -0.125.

ACCGCCGG: the “PBM E-score” value stood at 0.0453.

CTACGTTA: the “PBM E-score” value was -0.174.

As for ATTAGGTC, the “PBM E-score” value is 0.0995.

For AGCACTTA, the “PBM E-score” value is -0.0577.

Take CTAGATCC: the “PBM E-score” value was -0.0844.

Consider CCTAAACC, for which the “PBM E-score” value was -0.202.

In the case of GCCTGTGA, the “PBM E-score” value is -0.0772.

Regarding GTCGTCAC, the “PBM E-score” value is 0.0135.

In the case of ACGGTGAA, the “PBM E-score” value was -0.0159.

As to ATTATTAG, the “PBM E-score” value was -0.122.

On to GGTCTCAA, for which the “PBM E-score” value was -0.0755.

Consider AGCATGCT, for which the “PBM E-score” value is -0.0631.

Regarding CGACACAG, the “PBM E-score” value is 0.203.

CCCAACAA: the “PBM E-score” value is -0.00937.

As for TCATGTAA, the “PBM E-score” value is 0.16.
